Some of the results follow. At the low end of the ranking the order means little.
Biological target: T1, GST-Rok (full length) (UniProt O34857)
T1 sequence: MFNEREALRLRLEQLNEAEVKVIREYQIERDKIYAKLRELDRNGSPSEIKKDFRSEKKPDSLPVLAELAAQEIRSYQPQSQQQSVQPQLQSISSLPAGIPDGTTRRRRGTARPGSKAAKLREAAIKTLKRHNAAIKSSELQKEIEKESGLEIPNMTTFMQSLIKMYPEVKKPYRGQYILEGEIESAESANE
Assay: protein binding microarray;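 note: rank score from −0.5 (least bound) to 0.5 (best bound)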
Settings: Rok is a gene silencer of Bacillus subtilis; high values mean tight binding; most listed sequences are background and not binding sites; double strand, one strand shown

Row | Sequence | binding signal
1 | ATATATAC | 0.396 E-score
2 | AATGAGGC | -0.221 E-score
3 | AGTTACCA | 0.261 E-score
4 | ATTCGAGG | 0.107 E-score
5 | ATCACAGC | 0.191 E-score
6 | TACTACAA | 0.357 E-score
7 | ATCACCTG | 0.197 E-score
8 | ACGGCAAG | -0.0527 E-score
9 | ATACGGCC | -0.21 E-score
10 | AAATCTCT | 0.1 E-score
11 | CTGTAGAA | 0.345 E-score
12 | GCTCTCTA | -0.154 E-score
13 | CTGGCTCA | 0.0475 E-score
14 | ATTATTGA | 0.182 E-score
15 | GGCGTCGA | -0.283 E-score
16 | ATAATATG | 0.232 E-score
17 | AGCAAAAC | -0.0428 E-score
18 | CTATCAAA | 0.279 E-score
19 | ATCTCTCA | 0.128 E-score
20 | CGGCTATC | -0.0522 E-score
21 | GACATACA | 0.0575 E-score
22 | GAGTGCGC | -0.287 E-score
23 | AATGTCCC | -0.237 E-score
24 | GAGATCCA | -0.000368 E-score

Row | Sequence | binding signal
25 | AGCTAACC | 0.0976 E-score
26 | ACGGGGCA | -0.116 E-score
27 | CAGCGACC | -0.155 E-score
28 | CTACCTTA | 0.264 E-score
29 | CCAGCGGC | -0.305 E-score
30 | GCAAGCGC | -0.158 E-score
31 | ATGGTGGG | -0.292 E-score
32 | CAGTTAAA | 0.274 E-score
33 | CAGAGTGA | -0.117 E-score
34 | CACTTGAG | 0.0113 E-score
35 | GGACCTCA | -0.284 E-score
36 | GAAGAATC | 0.114 E-score
37 | GCTTCGTA | -0.143 E-score
38 | CACTGCCA | -0.187 E-score
39 | ACGAATAT | 0.232 E-score
40 | GATATCCA | -0.00483 E-score
41 | GCGCCGCA | -0.27 E-score
42 | GGTTTAGA | 0.22 E-score
43 | AGGAGGCA | -0.296 E-score
44 | ACGTGTGC | -0.0154 E-score
45 | ACTGGGAA | -0.0286 E-score
46 | ATTCGAAT | 0.342 E-score
47 | CTAGCAGA | 0.128 E-score
48 | ACGAGGAT | -0.0373 E-score

Row | Sequence | binding signal
49 | ATCTGAAT | 0.0474 E-score
50 | GTGGCCGA | -0.23 E-score
51 | ACATCAAT | 0.137 E-score
52 | AGGTGGAT | -0.181 E-score
53 | ATTATTCA | 0.0606 E-score
54 | ATGGAAGA | -0.102 E-score
55 | ACTATCAA | 0.337 E-score
56 | AAGTGACC | -0.136 E-score
57 | GAGGTACA | 0.159 E-score
58 | CCCGAATC | -0.113 E-score
59 | GTATAACA | 0.208 E-score
60 | ACCCACGC | -0.201 E-score
61 | ACAATGGA | -0.0288 E-score
62 | AGCTAGGG | -0.15 E-score
63 | AAAATACA | 0.344 E-score
64 | ACGGGGGA | -0.386 E-score
65 | ATACCTTC | 0.0433 E-score
66 | CATGTTTC | 0.149 E-score
67 | TATACAGA | 0.342 E-score
68 | AGCAGTCC | 0.0185 E-score
69 | ATGCTCCG | -0.153 E-score
70 | AAGGGGGT | -0.422 E-score
71 | CGTAATAG | 0.318 E-score
72 | AGGAGTAC | -0.115 E-score

Row | Sequence | binding signal
73 | CCTTCCAC | -0.276 E-score
74 | CAACGGGG | -0.143 E-score
75 | TACCAGCA | 0.135 E-score
76 | TATGAAGA | 0.0992 E-score
77 | GAGTACAA | 0.0966 E-score
78 | CACTAAAG | 0.0834 E-score
79 | ATCCGTGC | 0.097 E-score
80 | GAGCTTGC | -0.302 E-score
81 | AATAACTA | 0.341 E-score
82 | CTTAGTAC | 0.206 E-score
83 | AGTTTCTA | 0.402 E-score
84 | GGGACTAC | 0.0192 E-score
85 | AGTCATAG | 0.112 E-score
86 | ATCGTGTA | 0.252 E-score
87 | CATCTCAC | -0.246 E-score
88 | GACCAAAA | -0.108 E-score
89 | AACACAAG | 0.000927 E-score
90 | AATCTCCT | 0.108 E-score
91 | GAGGGAGA | -0.227 E-score
92 | ACATAAGA | 0.126 E-score
93 | AGCACCTC | -0.162 E-score
94 | ATGTTAGG | 0.0845 E-score

Reference: paper PMC6212790
